Measurements as given in PubChem BioAssay AID504339 (National Center for Advancing Translational Sciences (NCATS), 2011).
The campaign covered roughly 390,000 compounds. About 17,000 (4.4%) were called active. The inconclusive results got no clear call from the source; some entries with a clear call stand among them for comparison. Calls follow the shape of the dose curve; as a rule, active = well fitted inhibition curve with a large enough effect; inconclusive = small, poorly fitted or top-dose-only effect; inactive = no such curve, though single readings can be large or run the other way. Potencies beside an inconclusive call are fits to weak or partial responses and may not hold up.

Molecular target: Lysine-specific demethylase 4A (Homo sapiens) (UniProt O75164)
UniProt O75164, sequence (O75164 whole entry, looked up, the tested form may be a part): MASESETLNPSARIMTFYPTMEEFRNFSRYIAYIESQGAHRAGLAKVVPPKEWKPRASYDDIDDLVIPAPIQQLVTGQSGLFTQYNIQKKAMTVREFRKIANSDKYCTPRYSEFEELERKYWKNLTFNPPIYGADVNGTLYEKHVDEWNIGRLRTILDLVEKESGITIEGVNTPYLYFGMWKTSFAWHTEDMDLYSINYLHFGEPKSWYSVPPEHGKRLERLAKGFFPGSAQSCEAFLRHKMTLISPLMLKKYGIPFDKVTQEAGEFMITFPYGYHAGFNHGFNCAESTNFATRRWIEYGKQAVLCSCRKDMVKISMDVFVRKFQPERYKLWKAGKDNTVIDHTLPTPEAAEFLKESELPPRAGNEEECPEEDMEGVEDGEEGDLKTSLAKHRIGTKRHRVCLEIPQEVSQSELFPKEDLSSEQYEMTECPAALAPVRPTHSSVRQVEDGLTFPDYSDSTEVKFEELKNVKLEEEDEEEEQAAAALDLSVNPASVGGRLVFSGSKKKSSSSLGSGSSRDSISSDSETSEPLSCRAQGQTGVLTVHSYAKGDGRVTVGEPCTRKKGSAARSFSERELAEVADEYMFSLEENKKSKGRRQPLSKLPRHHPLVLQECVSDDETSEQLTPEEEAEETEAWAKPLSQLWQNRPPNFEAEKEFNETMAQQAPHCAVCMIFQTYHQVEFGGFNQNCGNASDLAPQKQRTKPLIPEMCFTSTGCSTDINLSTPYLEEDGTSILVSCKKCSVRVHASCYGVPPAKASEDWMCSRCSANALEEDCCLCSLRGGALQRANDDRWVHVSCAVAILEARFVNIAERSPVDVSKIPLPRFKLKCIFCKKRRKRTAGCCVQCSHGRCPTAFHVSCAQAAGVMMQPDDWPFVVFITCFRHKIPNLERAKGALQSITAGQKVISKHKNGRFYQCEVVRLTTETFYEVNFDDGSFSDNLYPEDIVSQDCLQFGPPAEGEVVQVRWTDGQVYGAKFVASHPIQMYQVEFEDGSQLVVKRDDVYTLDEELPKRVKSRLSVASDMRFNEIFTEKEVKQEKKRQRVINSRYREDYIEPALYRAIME
Assay: qHTS Assay for Inhibitors of JMJD2A-Tudor Domain; also: nearly all actives have a fitted effect of over 50% in size
Settings: AlphaScreen JMJD2A-Tudor / H3K4me3 peptide binding; series mostly up to 114 µM
Potency is read from the fitted curve at half-maximal effect; tags tell the direction and shape of the fitted curve.

Row | SMILES | Potency
1 | COc1ccc(C(=O)N2CCN(C3CCC(c4ccccc4)CC3)CC2)cc1OC (stereo not drawn) | active: 2.82 µM
2 | Nc1cc2c(cc1C(=O)c1ccc(Cl)cc1)OCCO2 | active: 50.1 µM
3 | O=C(Nc1ccccc1N1CCCCC1)c1cc(S(=O)(=O)N2CCOCC2)ccc1Cl | inactive
4 | CCN(CC)S(=O)(=O)c1ccc2oc(C(=O)NC(C)C)c(C)c2c1 | inconclusive: 39.8 µM [inhibitor, single point]
5 | CN(C)CCCNC(NC(=O)c1cccs1)C(Cl)(Cl)Cl (stereo not drawn) | inactive
6 | COc1ccc(/C=C2\CCc3c2nc2ccccc2c3C(=O)O)cc1OC | inactive
7 | COc1ccc(/C=C/C(=O)c2ccccc2)cc1COc1ccccc1F | inactive
8 | Cc1ccc(/C(O)=C2\C(=O)C(=O)N(CC(C)O)C2c2ccc(N(C)C)cc2)cc1 (stereo not drawn) | inconclusive: 89.1 µM [inhibitor, single point]
9 | CN(C)CC(=O)Nc1ccc(S(N)(=O)=O)cc1 | active: 14.1 µM
10 | COc1ccc(Cl)cc1NC(=O)/C=C\C(=O)O | inconclusive: 79.4 µM [inhibitor, partial curve]
11 | CC1CCN(S(=O)(=O)c2ccc(NC(=O)C3CSC4(C)CCC(=O)N34)cc2)CC1 (stereo not drawn) | active: 79.4 µM
12 | Cc1ccc(OCCSc2nc3ncnc(N)c3[nH]2)cc1 | inconclusive: 12.6 µM [inhibitor, full curve]
13 | O=C(COc1cccc2cccnc12)Nc1nccs1 | inconclusive: 89.1 µM [inhibitor, partial curve]
14 | C=CCNc1nnc(SC2CC(=O)N(c3ccc(OC)cc3)C2=O)s1 (stereo not drawn) | active: 44.7 µM
15 | COc1ccc(-c2noc(N3CCN(c4cccc(Cl)c4)CC3)n2)cc1OC | inactive
16 | Cc1cc(OCC(=O)Nc2cc(-c3nc4ccccc4[nH]3)ccc2C)ccc1Cl | inactive
17 | COC(=O)c1ccc(COc2ccc(/C=N/Nc3cccc(C(=O)O)c3)cc2)cc1 | active: 56.2 µM
18 | COc1ccc(/C(=N/Nc2ncnc3ccccc23)C(=O)O)cc1 | inconclusive: 2.82 µM [inhibitor, partial curve, poor fit]
19 | COc1ccc(/C=C2\SC(=S)N(CCCC(=O)N3CCOCC3)C2=O)cc1 | active: 50.1 µM
20 | O=C(Nc1ccccc1)c1ccc2snnc2c1 | inconclusive: 14.1 µM [inhibitor, single point]
21 | O=[N+]([O-])c1cccc(C2Nc3cccc4cccc(c34)N2)c1 | active: 50.1 µM
22 | CC(=O)c1ccc(N2CCN(C(=O)c3nn(C)c4c3CS(=O)(=O)c3ccccc3-4)CC2)cc1 | inconclusive: 15.8 µM [inhibitor, full curve]
23 | Cc1cc(C(=O)CSc2n[nH]c(N)n2)c(C)n1-c1cccc(F)c1 | inconclusive: 50.1 µM [inhibitor, partial curve]
24 | CNc1cc([N+](=O)[O-])ccc1N/C=C/C(=O)c1cccs1 | inconclusive: 56.2 µM [inhibitor, partial curve, poor fit]
25 | COc1ccc(NC(=O)CCN2CCN(CCO)CC2)c(OC)c1 | inactive
26 | CCn1c(-c2csc(C(C)C)c2)n[nH]c1=S | active: 10 µM

Row | SMILES | Potency
27 | COc1ccccc1NC(=O)c1ccccc1S(=O)(=O)c1ccccc1[N+](=O)[O-] | inconclusive: 39.8 µM [inhibitor, single point]
28 | COCCNCCOc1ccccc1-c1ccccc1 | active: 14.1 µM
29 | O=C(C[C@H]1C[C@H](C(=O)N2CCOCC2)[C@@]2(CCC3CCCC3)c3[nH]c4cc(-c5ccco5)ccc4c3CCN2C1=O)NCCCn1ccnc1 | active: 56.2 µM
30 | CCCn1c(=NC(=O)c2ccco2)c(C(=O)OCC)cc2c(=O)n3ccccc3nc21 | inactive
31 | Cc1ccc(O)c(N=Nc2ccc(S(=O)(=O)N3CCCC3)cc2)c1 | inconclusive: 100 µM [inhibitor, partial curve]
32 | CC(C)Sc1nc2c(c(=O)[nH]c(=O)n2C)n1Cc1ccc(Cl)cc1 | active: 31.6 µM
33 | COCCn1c(NC(=S)NC(=O)C2CC2)cc(=O)[nH]c1=O | active: 1 µM
34 | CCOC(=O)C1=C(C)NC(=O)/C1=C\N(C)C | inactive
35 | Cc1ccc(-c2nn(CC(=O)NC3CCCC3)c3c2cnc2ccc(F)cc23)cc1C | inactive
36 | O=C(C1COc2ccccc2O1)N1CCN(c2ccc(C(F)(F)F)cn2)CC1 (stereo not drawn) | inconclusive: 35.5 µM [inhibitor, single point]
37 | CC1=C(C(=O)Nc2ccccc2C)C(c2ccc(C)o2)NC(=S)N1 (stereo not drawn) | inactive
38 | S=C(NCc1ccccn1)Nc1ccccc1Cl | inconclusive: 70.8 µM [inhibitor, single point]
39 | CSc1nc(=S)n(Cc2ccccc2)c(C)c1C(C)=O | inconclusive: 20 µM [inhibitor, single point]
40 | CN(C)CC(=O)c1c[nH]c2ccccc12 | active: 50.1 µM
41 | C[C@]12CCC(=O)C=C1C=C[C@@H]1[C@@H]2CC[C@@]2(C)[C@H]1CC[C@@]21CCC(=O)O1 | inactive
42 | COc1ccccc1/C=C/C=N/NC(=O)c1ccc(=O)n(C)c1 | inconclusive: 4.47 µM [inhibitor, full curve]
43 | Cc1csc(NC(=O)c2ccccc2)n1 | inactive
44 | COCCN1CCc2c(C)nc3c(-c4ccc(OC)c(OC)c4)cnn3c21 | inactive
45 | CC1=C(C(=O)NC2CCCC(C)C2C)C2(CCCCC2)OC1=O (stereo not drawn) | inconclusive: 25.1 µM [inhibitor, partial curve]
46 | COC(=O)C1=C(C)N(C(C)c2ccccc2)C(=O)/C1=C\c1ccco1 (stereo not drawn) | active: 25.1 µM
47 | O=C1C(Cl)=C(NCCc2ccccc2)C(=O)N1CCc1ccccc1 | inactive
48 | CCC(=O)Nc1ccccc1-c1nc2ccccc2n(CC(=O)c2ccc(C)c(C)c2)c1=O | inactive
49 | NC(N)=Nc1nc2ccc(Br)cc2c(=O)[nH]1 | inconclusive: 100 µM [inhibitor, single point]
50 | S=c1[nH]nc(-c2ccc(Br)cc2)n1Cc1ccccc1 | inconclusive: 8.91 µM [inhibitor, full curve]
51 | CCOc1ccc(Oc2ccccc2NC(=O)CCNC(C)=O)cc1 | inactive
52 | COc1cccc(NC(=O)CSc2nc3c([nH]c4ccccc43)c(=O)n2-c2ccccc2)c1 | inactive

Row | SMILES | Potency
53 | O=C(CCS(=O)(=O)c1ccc(Br)cc1)NCCc1ccccc1 | active: 39.8 µM
54 | Cc1ccc(NS(=O)(=O)c2ccc3c(c2)CCC(=O)N3)cc1Cl | inconclusive: 25.1 µM [inhibitor, single point]
55 | CN(Cc1ccc2c(c1)OCO2)C(=O)c1cc(-c2ccccc2)c(N2CCOCC2)s1 | inconclusive: 35.5 µM [inhibitor, partial curve]
56 | COc1ccc(C(=O)COC(=O)[C@H](C)Nc2ccc(C(F)(F)F)cc2[N+](=O)[O-])cc1 | inactive
57 | C/C(=N\NC(=S)Nc1ccc(C)cc1)c1cc2ccccc2o1 | inconclusive: 28.2 µM [inhibitor, full curve]
58 | O=C(CCc1nnc2n(Cc3ccccc3Cl)c(=O)c3ccccc3n12)Nc1ccc(F)c(F)c1 | inconclusive: 89.1 µM [inhibitor, single point]
59 | COc1ccc(-c2oc3ncnc(NCCCN4CCOCC4)c3c2-c2ccc(OC)cc2)cc1 | inconclusive: 44.7 µM [inhibitor, partial curve]
60 | CCn1c(N)c(C(=O)COC(=O)CCc2nc3ccccc3c(=O)[nH]2)c(=O)[nH]c1=O | inactive
61 | COc1cccc2c1nc(C)c1cc(C)oc12 | inactive
62 | COc1ccc(-c2cn3c(C)c(C(=O)N4CCCc5ccccc54)sc3n2)cc1 | inconclusive: 14.1 µM [inhibitor, full curve]
63 | NC(=O)NC(=O)Nc1ccccc1Cl | inactive
64 | Cc1nc2ccc3nc(NC(=O)c4ccco4)sc3c2s1 | inconclusive: 79.4 µM [inhibitor, partial curve]
65 | Cc1[nH]c2ccccc2c1C(=O)COC(=O)c1ccccc1O | inactive
66 | COc1ccc2[nH]c(C)c(CCN3C(=O)C4CC=CCC4C3=O)c2c1 (stereo not drawn) | active: 25.1 µM
67 | CCN(c1ncnc2c1cnn2-c1cc(Cl)ccc1C)C1CCCCC1 | inactive
68 | Cc1ccc(N2CCN(CCc3nc4cc(NC(=O)c5ccco5)ccc4n3C)CC2)cc1 | inconclusive: 56.2 µM [inhibitor, partial curve]
69 | CC(=O)Nc1c(C(=O)O)ccc(C)c1OCc1ccccc1 | inactive
70 | O=C(Nc1ccc2c(c1)OCO2)c1n[nH]c(=O)c2ccccc12 | inconclusive: 100 µM [inhibitor, single point]
71 | Cc1ccc(C)c(/C=C(\C(=O)O)c2ccc(S(=O)(=O)N3CCCCC3)s2)c1 | inconclusive: 56.2 µM [inhibitor, partial curve]
72 | CC(C)OC(=O)C(CC(=O)O)NCc1ccccc1 (stereo not drawn) | active: 11.2 µM
73 | CC(=O)c1sc(N/N=C2\CC3CC2C(C)C3(C)C)nc1C (stereo not drawn) | inconclusive: 56.2 µM [inhibitor, partial curve]
74 | CC(=O)C1=C(O)C(=O)N(c2cccc(C(=O)O)c2)C1c1ccc(F)cc1 (stereo not drawn) | inconclusive: 31.6 µM [inhibitor, partial curve]
75 | O=C(O)c1ccc(-n2cc(-c3cc4ccccc4oc3=O)[nH]c2=S)cc1 | active: 1.26 µM
76 | O=c1cc2nc(-c3cccs3)nc(SCCOc3ccc(Cl)cc3)n2[nH]1 | inconclusive: 79.4 µM [inhibitor, partial curve]
77 | Cc1ccc2c(c1)c1c(n2CC(O)Cn2c(C)nc3ccccc32)CCCC1 (stereo not drawn) | inconclusive: 39.8 µM [inhibitor, full curve, poor fit]
78 | C=CCNC(=O)CCCOc1cc(C)ccc1C | inconclusive: 25.1 µM [inhibitor, full curve]
